The values below come from the RNAGym collection of RNA variant scans (doi:10.1093/nar/gkz1192).

The source gives no read counts; variants with many changes may rest on few reads.

B1: CPEB3 Ribozyme (parent)
chain: UAACAGGGGGCCACAGCAGAAGCGUUCACGUCGCAGCCCCUGUCAGAUUCUGGUGAAUCUGCGAAUUCUGCUGUAUAUCUC

Variants of B1 are the subject of the data set. Kind of data set: self-cleavage, relative activity (ratio to wild type); higher = more cleavage; in vitro, sequencing. In a few lines:
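CPEB3 self-cleaving ribozyme mutant libraries were made by rounds of error-prone PCR, barcoded, and transcribed in vitro with T7 RNA polymerase for 5 hours at 37°C. Cleavage occurred during transcription and a 15 min DNase I step before EDTA stop. RNAs were reverse transcribed with template switching and Illumina-sequenced, with DNA sequencing mapping barcodes to variants. Relative activity is the variant's cleaved/total read fraction divided by wild type's (minimum 5 reads), averaged across three batches.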
Turning to A13U G24A U41C U43C A45U U51G A64G, the self-cleavage was 0.16.
As for A15C A18G A45G, the figure is 0.04; as for A13U U49C A56U U72A, 0.25; as for A13U U49C A57G A64G U66C A77U, 0.09.
As for A15G A21G A28U A47U U51C U69C, the figure is 0.08; as for C14U U31C U41A U48C U78A, 0.14.
The same measure for C14G A28U U48C U54A: 0.23.
For the variant A13U U51A A56G A64G U69G, the self-cleavage was found to be 0.27.
As for A13U U31A G73C U74C A75G, the figure is 0.92; as for A15G A28U A45U A64G, 0.11.
As to A15G A35U A64U G73A, the self-cleavage was 0.16.
On to A13U C68A U78A, for which the self-cleavage was 0.62.
As for A15G A45G U54C, the figure is 0.63; as for A15G A21G U25C A65G U72C, 0.12; as for A13U U54C U69C, 0.46.
As for A15G A28G C29U, the figure is 0.37; as for A15C A18C A64G, 0.56.
As for A15G A20U G46A, the figure is 0.23; as for A15G A35U A56G A57G A77G, 0.38; as for C14U A15G G33U U49A A56G C59G, 0.11.
Consider A13U U41C G46U, for which the self-cleavage amounted to 0.19.
The same measure for A13U A56G U76C: 1.04; for C14G U25C A65U: 0.11; for A13U U69G C79U: 0.35.
On to A15G A28G U54C U80C, for which the self-cleavage was determined as 0.54.
For the variant A15G A18G A57G C71U, the self-cleavage was determined as 0.18.
The same measure for C14U A35G U49C A56G U69C: 1.23; for A15G A35U U51A U72A: 0.17; for A15C U26C G36A U43C C68A: 0.29.
For A15G A35G U48A U54G U78C, the self-cleavage turned out to be 0.4.
On to A13U U25C C27G A65C A75G, for which the self-cleavage was determined as 0.08.
Take A15G A20G A35G: the self-cleavage amounted to 0.39.
For C14U C32G C62U U74C, the self-cleavage was determined as 0.11.
Regarding A15C A20G U26C U41C U54A A56U U58A, the self-cleavage came to 0.23.
As for C14U A45G U51A U69G, the figure is 0.36; as for A13U G55U U80C, 1.27.
The same measure for A15C A21G A56G U67A: 0.16.
In the case of A13U A47U U69A U74C C81A, the self-cleavage was 0.57.
As for A13U G36C U54C A64G, the figure is 0.11.
Consider A13U U25C A28G A57G U60C U66C U78C, for which the self-cleavage stood at 0.03.
Consider A15C A21G U54G, for which the self-cleavage is 0.27.
Turning to A15G A28G A35G U41C U54A, the self-cleavage stood at 0.21.
In the case of A13U A47G U74A, the self-cleavage stood at 1.28.
For C14A A35U U72C U80C, the self-cleavage was 1.
For the variant C14U C38G C40A A57G U58C, the self-cleavage came out at 0.17.
As for A13U U41A U60C, the self-cleavage stood at 0.08.
For the variant C14A A57G A65G, the self-cleavage stood at 0.55.
As for A15C G46C C62U, the self-cleavage came to 0.12.
As for C14U U43C A47U, the figure is 0.09; as for A15G A21G U25C C29U U43C U69C U80C, 0.02; as for A15G A35U U49C, 0.33.
Consider C14U A56G U80C, for which the self-cleavage came out at 1.13.
For C14U U31G A45C U48C C62A, the self-cleavage was 0.21.
Take A13U C44U A45C A47G U51C U69G: the self-cleavage was determined as 0.11.
Turning to C14U A20G U26C U31C G73U A75G U80C, the self-cleavage was 0.14.
For the variant A15G A21G A64G, the self-cleavage worked out at 0.36.
Turning to A13U G19U U41C G73A U74C, the self-cleavage was found to be 0.52.
The same measure for A13U A45G U49C U66C U67C G73A: 0.07; for A13U G24A U31C U41C: 0.12; for C14A A18G A56G: 0.58.
With A15G A18G G46A U58C U60C, the self-cleavage was 0.14.
As for A13U G16A U43A C68A, the figure is 0.18; as for A13U A57G A77G, 1.17; as for A13U C17A A18G U26A U48C G70A G73A, 0.04.
As for A15G A28C C44U U66C, the figure is 0.08; as for A13U C39A A47U A65G, 0.16.
For the variant A13U C17U A18G A20G U31C A64G, the self-cleavage was found to be 0.08.
Consider A13U G55A U69A U78G, for which the self-cleavage was 0.18.
As to A13U U25A C37A C39U G61C, the self-cleavage turned out to be 0.07.
For C14U U41A A45U, the self-cleavage is 0.27.
Take C14U A35G C39A U54C U67C U78C U80C: the self-cleavage turned out to be 0.07.
For the variant A15C A35G U51A U74A, the self-cleavage was determined as 1.23.
The same measure for A15G A20G G30U: 0.42; for A13U C39G U49G A64G: 0.13; for A15C A21G U25A A64G: 0.11.
Turning to A15G A20G A28U A35G, the self-cleavage is 0.16.
The same measure for C14G U25C U60C: 0.28; for A13U U43C A56U U58C: 0.03; for A13U U41C U80C: 1.22.
For the variant A13U G22A U25C C34U, the self-cleavage was 0.31.
As for A13U C14U A45G U66C, the self-cleavage came to 0.26.
As to A13U G16C U48A U51C, the self-cleavage stood at 0.06.
The same measure for A13U U25C U41A: 0.11; for A15C G19A A64G U72A: 0.13.
The same measure for A15G A18U U54C A64G: 0.41.
In the case of A13U C44G U51C, the self-cleavage was 0.58.
The same measure for A15C U26C C32U A45U: 0.1; for C14U G19C A47G G63U: 0.3; for A13U U41G U43A: 0.13.
As for A15C C37U U43C U80A, the self-cleavage came out at 0.18.
As for A13U U54C C62A U66C U72A, the figure is 0.23.
As for A15C A18G C59U A64U, the figure is 0.07; as for A15G A20G U25C U51A C68G, 0.06; as for A15G A18U U26A G33U U76A, 0.18.
As to A13U G24C U48C A65G, the self-cleavage came out at 0.05.
As for A13U U49A C79U, the figure is 1.2; as for A13U U43C A45U U60C, 0.21; as for A15G A21G A45U, 0.39.
In the case of A13U U31A U67C U69A, the self-cleavage is 0.09.
As for C14A U41C U51A A56U U67A, the figure is 0.66.
In the case of A13U U43C U48A, the self-cleavage was 0.1.
The same measure for A13U A57G U78C: 1.24.
With A13U C27A A65G U74G U78A, the self-cleavage came out at 0.03.
The same measure for C14U A18C G63C U72C: 0.16; for C14U G46A U78C: 0.42.
As for A15G A20U U31C U48C A64G U69A, the figure is 0.07.
As to A15G A20G U25A A28G U41A A64G, the self-cleavage stood at 0.09.
The same measure for A15G A35U A45C U54C U67C: 0.09.
In the case of A13U U48A G63A U72A U74A, the self-cleavage was determined as 0.06.
For A13U U49C U66C, the self-cleavage came out at 0.49.
The same measure for A15G A18U U41A U49C A64G A77G U78C: 0.08; for A15G A20G C40U U48C: 0.08; for A13U A45U G70A: 0.37.
As for C14A A28G A45G U51C, the figure is 0.33.
A15C A57G A64G: the self-cleavage was 0.64.
Take A13U G16U C32U U67C U69A: the self-cleavage came to 0.09.
As for C14G A20C U26A A65G U80C, the figure is 0.14; as for A13U U51C U69A U80C, 0.5.
As for A15G A18U A45G U54A U72C, the figure is 0.
For the variant A13U U48C A64G, the self-cleavage was found to be 0.15.
A13U U31C C40U U60A G63U: the self-cleavage turned out to be 0.16.
As for A13U G33U C39U U54A A57G, the figure is 0.07.
The same measure for C14U A21G U25A U66C U72A: 0.05; for A15G A21G C27U A35G A65U U66A: 0.1.
The same measure for A15C U25C U26G A56G: 0.31.
For A13U U67A A77G, the self-cleavage worked out at 0.89.
As for A13U C23U U26C A35U C37U A56G U58C, the figure is 0.06; as for A15G A20G A56U, 0.14; as for A15G A20G C32A, 0.12.
In the case of A13U A64G U69A G70C U80G, the self-cleavage was 0.11.
Consider A15C G36A A47U, for which the self-cleavage came out at 0.06.
On to A13U C29U U31C A47G U66C, for which the self-cleavage stood at 0.06.
As for A13U U25C A35G, the figure is 0.43; as for A15C G24A U66G, 0.26.
As for C14U U31A C38A U41C U51G, the figure is 0.09; as for A15G A21G A65G U80A, 0.28; as for A13U G19A U67A, 0.3.
The same measure for C14A C23U A64U C79A: 0.02.
Regarding A13U C50U G52A A64G, the self-cleavage worked out at 1.19.
The same measure for A15G A18G C29U U41C A56G: 0.13; for A13U U60A U66C: 0.21; for A15C A18U U31C U54A C71A U74A A75U: 0.09.
For A15G A18G A35U, the self-cleavage was 0.31.
The same measure for A15G A21G A28G U51C U72C A75U: 0.46; for A13U U25C U49C U66C U69C: 0.18.
On to C14U U41A U60C A64U, for which the self-cleavage stood at 0.11.
As for C14U A18G A21G, the figure is 0.31; as for A13U U25C U66C, 0.04; as for A13U C40U G42A U80C, 0.1.
Regarding A15G A20G U48C A57G, the self-cleavage is 0.77.
As for C14A A15G U41A, the self-cleavage was determined as 0.18.
The same measure for A13U G22A U72A: 0.11; for A15G A35G A45G U72A U76A: 0.22; for A15G A18G U54A U67C: 0.12.
As for A13U U31C U72C, the figure is 0.75.
Turning to A15C U41A G53C U58C U66C, the self-cleavage is 0.08.
As for C14U A35G A64U, the figure is 1.25; as for A13U C34G A77C, 0.08; as for A15C A20G U31C U41C A65G, 0.28.
Take A13U A47U U51C A57G U60A C79A: the self-cleavage stood at 0.29.
As for A13U G70A U76C, the figure is 0.95; as for A15C U43C U49C U69A U74C, 0.18.
The same measure for C14A C17G A56G G70U U80A: 1.25.
In the case of A13U C40U U76A, the self-cleavage was 1.14.
The same measure for A15C U31A U41A U43C U48C G61A A65G: 0.05; for A13U A45G U54C: 0.99.
As for A15C U51A U67C U78C, the figure is 0.43.
